The source of these data is the Deep4Chem optical property database.

This data set can be described thus: solvent given as SMILES. The conditions noted are these: in CC(=O)N(C)C.

Turning to `CC(C)(C)c1cc(/C2=C3\C=CC(=N3)/C(c3ccc(Br)cc3)=c3/cc/c([nH]3)=C(\c3ccc(Br)cc3)C3=N/C(=C(/c4cc(C(C)(C)C)cc(C(C)(C)C)c4)c4cc2c[nH]4)C=C3)cc(C(C)(C)C)c1`, the absorption maximum is 702 nm.
